Test [1] deals with T1, green fluorescent protein (GFP)-tagged FBLN7 (fibulin 7), full length, mouse (mouse) (UniProt Q501P1).
T1 sequence: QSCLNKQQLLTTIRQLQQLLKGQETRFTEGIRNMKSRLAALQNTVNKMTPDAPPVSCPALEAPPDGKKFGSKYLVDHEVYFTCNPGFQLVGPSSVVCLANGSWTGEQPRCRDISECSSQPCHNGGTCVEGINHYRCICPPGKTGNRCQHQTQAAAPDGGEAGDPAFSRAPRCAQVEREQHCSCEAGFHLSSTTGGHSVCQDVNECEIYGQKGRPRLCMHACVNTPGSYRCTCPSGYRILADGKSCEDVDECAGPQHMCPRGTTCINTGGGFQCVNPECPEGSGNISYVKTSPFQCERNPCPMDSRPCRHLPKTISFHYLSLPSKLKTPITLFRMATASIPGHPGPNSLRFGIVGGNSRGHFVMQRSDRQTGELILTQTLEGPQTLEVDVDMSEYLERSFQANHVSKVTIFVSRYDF
As to the kind of experiment: co-IP; His-EGFR and GFP-FBLN7 co-expressed in 293T cells; non-denaturing lysis buffer; IP antibody then protein A/G magnetic beads at 4°C overnight; IP with GFP-FBLN7 and blot for His-EGFR, and the reverse.

Protein sequences, listed by entry. Tags and fused reporters are not part of them.
UniProt P34152: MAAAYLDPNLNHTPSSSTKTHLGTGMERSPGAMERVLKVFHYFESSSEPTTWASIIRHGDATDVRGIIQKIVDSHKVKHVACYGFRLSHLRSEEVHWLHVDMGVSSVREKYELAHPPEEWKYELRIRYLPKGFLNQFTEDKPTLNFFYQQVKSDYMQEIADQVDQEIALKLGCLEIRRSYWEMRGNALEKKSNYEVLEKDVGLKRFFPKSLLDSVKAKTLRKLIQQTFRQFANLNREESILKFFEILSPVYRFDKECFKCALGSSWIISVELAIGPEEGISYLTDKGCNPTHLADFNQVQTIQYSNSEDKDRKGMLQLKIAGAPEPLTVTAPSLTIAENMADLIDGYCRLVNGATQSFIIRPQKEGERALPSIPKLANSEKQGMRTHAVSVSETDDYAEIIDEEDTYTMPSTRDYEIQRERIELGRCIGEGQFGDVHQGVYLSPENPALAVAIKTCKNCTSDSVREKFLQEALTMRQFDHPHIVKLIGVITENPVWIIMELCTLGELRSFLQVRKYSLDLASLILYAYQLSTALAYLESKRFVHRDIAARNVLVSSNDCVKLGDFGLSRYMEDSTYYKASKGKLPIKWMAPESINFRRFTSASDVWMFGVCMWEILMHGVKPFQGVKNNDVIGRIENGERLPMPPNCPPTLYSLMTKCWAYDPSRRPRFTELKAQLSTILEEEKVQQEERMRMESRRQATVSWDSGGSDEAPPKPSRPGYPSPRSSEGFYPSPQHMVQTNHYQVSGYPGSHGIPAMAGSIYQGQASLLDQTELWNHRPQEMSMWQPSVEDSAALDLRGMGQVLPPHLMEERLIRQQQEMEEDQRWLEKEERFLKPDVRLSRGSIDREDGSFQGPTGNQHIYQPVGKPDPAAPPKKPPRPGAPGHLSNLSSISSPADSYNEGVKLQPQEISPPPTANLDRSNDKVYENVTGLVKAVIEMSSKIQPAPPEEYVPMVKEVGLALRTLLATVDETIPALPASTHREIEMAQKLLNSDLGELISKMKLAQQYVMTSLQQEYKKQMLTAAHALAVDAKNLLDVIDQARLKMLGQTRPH

Test [2] deals with T2, endogenous FBLN7 (fibulin 7) of cardiac fibroblasts (mouse (endogenous in neonatal mouse cardiac fibroblasts)) (UniProt Q501P1).
T2 sequence: T1 sequence
As to the kind of experiment: co-IP; endogenous FBLN7 and FAK in lysates from cardiac fibroblasts stimulated with hTGF-β1 (Figure S5).

Test [3] deals with His-tagged EGFR (epidermal growth factor receptor), full length, mouse (mouse) (UniProt Q01279). The experiment in a line: co-IP; His-EGFR and GFP-FBLN7 co-expressed in 293T cells; non-denaturing lysis buffer; IP antibody then protein A/G magnetic beads at 4°C overnight; IP with GFP-FBLN7 and blot for His-EGFR, and the reverse.
The target is the same in test [4]. As to the kind of experiment: co-IP; His-EGFR with Myc-FBLN7 full length or deletion mutants in 293T cells; Western blotting of the immunoprecipitated fraction of the full-length His-EGFR.
Test [5] has as its target endogenous EGFR of cardiac fibroblasts (mouse (endogenous in neonatal mouse cardiac fibroblasts)) (UniProt Q01279). The experiment in a line: co-IP; endogenous proteins in hTGF-β1-treated cardiac fibroblasts; IP with EGFR and blot for FBLN7.

No constants are given. Whether binding was seen depends on the method and setting. In cells and extracts the contact can be indirect. Some results given as binding are weak or reduced against the parent protein; the word gives no strength. For part of these data: Where a sequence is shown, tags or fusion partners need not be part of it.

For the molecule “His-tagged EGFR (epidermal growth factor receptor), full length, mouse (from UniProt Q01279 25-1210)”, the binding entry in test [1] is “binds”.

Consider “focal adhesion kinase (FAK), endogenous in cardiac fibroblasts (from UniProt P34152 1-1052) (enzyme)”, for which, in test [2], the binding result is “no binding”.

B1: green fluorescent protein (GFP)-tagged FBLN7 (fibulin 7), full length, mouse (protein, UniProt Q501P1 25-440)
chain: T1 sequence
On to B1, for which the binding result in test [3] is listed as “binds”.

B2: Myc-tagged full-length FBLN7 (protein, UniProt Q501P1 25-440)
chain: T1 sequence
In the case of B2, the binding result in test [4] is recorded as “binds”.

B3: endogenous FBLN7 (fibulin 7) of cardiac fibroblasts (protein, UniProt Q501P1 25-440)
chain: T1 sequence
For B3, the binding result in test [5] was “binds”.

B4: Myc-tagged FBLN7 mutant lacking the sushi domain (domain or fragment, UniProt Q501P1)
chain: QSCLNKQQLLTTIRQLQQLLKGQETRFTEGIRNMKSRLAALQNTVNKMQPCHNGGTCVEGINHYRCICPPGKTGNRCQHQTQAAAPDGGEAGDPAFSRAPRCAQVEREQHCSCEAGFHLSSTTGGHSVCQDVNECEIYGQKGRPRLCMHACVNTPGSYRCTCPSGYRILADGKSCEDVDECAGPQHMCPRGTTCINTGGGFQCVNPECPEGSGNISYVKTSPFQCERNPCPMDSRPCRHLPKTISFHYLSLPSKLKTPITLFRMATASIPGHPGPNSLRFGIVGGNSRGHFVMQRSDRQTGELILTQTLEGPQTLEVDVDMSEYLERSFQANHVSKVTIFVSRYDF
For B4, in test [4], the binding result is “binds”.

B5: Myc-tagged FBLN7 mutant lacking the C-terminus (domain or fragment, UniProt Q501P1 25-373)
chain: QSCLNKQQLLTTIRQLQQLLKGQETRFTEGIRNMKSRLAALQNTVNKMTPDAPPVSCPALEAPPDGKKFGSKYLVDHEVYFTCNPGFQLVGPSSVVCLANGSWTGEQPRCRDISECSSQPCHNGGTCVEGINHYRCICPPGKTGNRCQHQTQAAAPDGGEAGDPAFSRAPRCAQVEREQHCSCEAGFHLSSTTGGHSVCQDVNECEIYGQKGRPRLCMHACVNTPGSYRCTCPSGYRILADGKSCEDVDECAGPQHMCPRGTTCINTGGGFQCVNPECPEGSGNISYVKTSPFQCERNPCPMDSRPCRHLPKTISFHYLSLPSKLKTPITLFRMATASIPGHPGPNSLR
Consider B5, for which, in test [4], the binding result is on record as “binds”.

B6: Myc-tagged FBLN7 mutant lacking the EGF-like domain (domain or fragment, UniProt Q501P1)
chain: QSCLNKQQLLTTIRQLQQLLKGQETRFTEGIRNMKSRLAALQNTVNKMTPDAPPVSCPALEAPPDGKKFGSKYLVDHEVYFTCNPGFQLVGPSSVVCLANGSWTGEQPRCRHQTQAAAPDGGEAGDPAFSRAPRCAQVEREQHCSCEAGFHLSSTTGGHSVCQDVNECEIYGQKGRPRLCMHACVNTPGSYRCTCPSGYRILADGKSCEDVDECAGPQHMCPRGTTCINTGGGFQCVNPECPEGSGNISYVKTSPFQCERNPCPMDSRPCRHLPKTISFHYLSLPSKLKTPITLFRMATASIPGHPGPNSLRFGIVGGNSRGHFVMQRSDRQTGELILTQTLEGPQTLEVDVDMSEYLERSFQANHVSKVTIFVSRYDF
For the molecule B6, in test [4], the binding result was “no binding”.

B7: Myc-tagged FBLN7 mutant lacking the EGF-like calcium-binding domain (domain or fragment, UniProt Q501P1)
chain: QSCLNKQQLLTTIRQLQQLLKGQETRFTEGIRNMKSRLAALQNTVNKMTPDAPPVSCPALEAPPDGKKFGSKYLVDHEVYFTCNPGFQLVGPSSVVCLANGSWTGEQPRCRDISECSSQPCHNGGTCVEGINHYRCICPPGKTGNRCQHQTQAAAPDGGEAGDPAFSRAPRCAQVEREQHCSCEAGFHLSSTTGGHSVCRNPCPMDSRPCRHLPKTISFHYLSLPSKLKTPITLFRMATASIPGHPGPNSLRFGIVGGNSRGHFVMQRSDRQTGELILTQTLEGPQTLEVDVDMSEYLERSFQANHVSKVTIFVSRYDF
On to B7, for which, in test [4], the binding entry is recorded as “no binding”.

These data come from paper PMC10460860.
